# Data published in the supplement of paper PMC7826260.
# The list shows a part of the results. Cleavage of a single-stranded DNA pool by Rep nickase domains was read by sequencing at 3 µM enzyme and 37 °C for 1 h; the strands have 90 letters, of which the middle is given. Numbers give uncut DNA relative to the enzyme-free pool, as log2; uncut sequences lie near 0, cut ones below; no hit call is given. Because reads are shares of a total, they shift together; values above 0 arise when much of the pool is cut.
# What was measured:
# Assay in all cases: uncleaved DNA left, log2 of reads against the no-enzyme library (log2 ratio); higher = less cleavage (more negative = more Rep cleavage of the k-mer); sequences stand for … in CTCGTCCG…ACCGGAGA
# [1] = system: T1, Rep nickase domain of Muscovy duck circovirus
# T1 sequence (Rep 1-111, printed without the tag): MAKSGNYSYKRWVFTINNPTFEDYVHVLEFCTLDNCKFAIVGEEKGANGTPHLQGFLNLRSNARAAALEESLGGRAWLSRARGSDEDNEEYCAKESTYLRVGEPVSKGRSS
# Experimental: (§1)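 A pool of 90-nt single-stranded DNAs with seven random bases just before the constant AC of the nick site (name = the seven bases) was cut by 3 µM recombinant His6-SUMO-tagged Rep nickase domain (300 nM DNA, 50 mM HEPES pH 8.0, 50 mM NaCl, 1 mM MnCl2, 1 h, 37 °C, three replicates). Uncut DNA was amplified and sequenced.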
# [2] = system: T2, Rep nickase domain of banana bunchy top virus
# T2 sequence (Rep 1-94, printed without the tag): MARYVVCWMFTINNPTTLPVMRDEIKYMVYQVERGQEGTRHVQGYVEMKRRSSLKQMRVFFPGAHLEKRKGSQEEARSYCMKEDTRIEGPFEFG
# Experimental: as §1
# [3] = system: T3, Rep nickase domain of cabbage leaf curl virus
# T3 sequence (Rep 1-116, printed without the tag): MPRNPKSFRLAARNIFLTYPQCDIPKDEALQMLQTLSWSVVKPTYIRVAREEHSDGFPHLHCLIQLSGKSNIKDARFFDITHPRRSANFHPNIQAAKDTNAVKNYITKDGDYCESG
# Experimental: as §1
# [4] = system: T4, Rep nickase domain of chickpea chlorotic dwarf virus
# T4 sequence (Rep 1-124, printed without the tag): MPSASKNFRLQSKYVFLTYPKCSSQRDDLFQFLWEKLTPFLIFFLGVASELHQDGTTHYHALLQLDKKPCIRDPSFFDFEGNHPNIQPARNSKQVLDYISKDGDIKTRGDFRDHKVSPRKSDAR
# Experimental: as §1
# [5] = system: T5, Rep nickase domain of faba bean necrotic yellows virus
# T5 sequence (Rep 1-98, printed without the tag): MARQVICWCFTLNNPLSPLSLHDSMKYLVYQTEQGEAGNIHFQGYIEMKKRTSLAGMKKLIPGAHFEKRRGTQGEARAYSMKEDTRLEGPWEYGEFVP
# Experimental: as §1
# [6] = system: T6, Rep nickase domain of maize striate mosaic virus
# T6 sequence (Rep 1-117, printed without the tag): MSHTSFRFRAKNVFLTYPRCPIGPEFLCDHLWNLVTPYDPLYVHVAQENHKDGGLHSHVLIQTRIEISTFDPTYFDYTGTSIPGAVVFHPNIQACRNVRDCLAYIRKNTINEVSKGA
# Experimental: as §1
# [7] = system: T7, Rep nickase domain of porcine circovirus 2
# T7 sequence (Rep 2-116, printed without the tag): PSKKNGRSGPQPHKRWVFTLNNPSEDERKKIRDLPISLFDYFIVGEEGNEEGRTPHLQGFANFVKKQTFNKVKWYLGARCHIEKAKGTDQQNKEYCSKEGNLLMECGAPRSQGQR
# Experimental: as §1
# [8] = system: T8, Rep nickase domain of tomato golden mosaic virus
# T8 sequence (Rep 1-124, printed without the tag): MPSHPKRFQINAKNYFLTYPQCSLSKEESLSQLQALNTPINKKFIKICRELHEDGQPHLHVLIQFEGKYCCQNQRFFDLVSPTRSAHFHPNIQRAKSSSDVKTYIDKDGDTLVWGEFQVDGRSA
# Experimental: as §1
# [9] = system: T9, Rep nickase domain of tomato yellow leaf curl virus
# T9 sequence (Rep 1-136, printed without the tag): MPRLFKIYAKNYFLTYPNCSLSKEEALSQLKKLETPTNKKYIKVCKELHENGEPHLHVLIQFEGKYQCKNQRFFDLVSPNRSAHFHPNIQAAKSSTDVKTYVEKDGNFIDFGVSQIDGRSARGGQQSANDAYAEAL
# Experimental: as §1
# [10] = system: T10, Rep nickase domain of wheat dwarf virus
# T10 sequence (Rep 1-137, printed without the tag): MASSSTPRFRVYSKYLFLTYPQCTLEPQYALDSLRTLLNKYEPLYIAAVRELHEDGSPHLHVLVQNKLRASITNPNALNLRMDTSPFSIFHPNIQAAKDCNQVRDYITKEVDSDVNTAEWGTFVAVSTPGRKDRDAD
# Experimental: as §1
Sequence,uncleaved DNA left (log2) [1],uncleaved DNA left (log2) [2],uncleaved DNA left (log2) [3],uncleaved DNA left (log2) [4],uncleaved DNA left (log2) [5],uncleaved DNA left (log2) [6],uncleaved DNA left (log2) [7],uncleaved DNA left (log2) [8],uncleaved DNA left (log2) [9],uncleaved DNA left (log2) [10]
TCGTATT,-3.94,-3.53,-3.23,-3.08,-3.28,-1.11,-4.03,-1,-0.0204,-1.94
TAACGAT,-0.11,-0.229,-2.01,-2.85,-0.12,0.401,-0.252,-0.159,-0.163,-0.654
TTGTGTT,-2.76,-1.79,-1.02,-2.65,-2.23,-1.2,-3.11,-0.429,-0.0941,-0.538
ATCATTA,-0.0324,-0.259,-0.448,-1.61,-0.0629,-0.942,-0.0916,-0.246,-0.323,-0.151
GAATCGT,-0.17,0.107,-2.28,-2.3,0.0115,-0.919,-1.61,-0.267,-0.0163,-0.58
ATTTGTC,0.0482,-0.133,-0.316,-0.556,0.0689,-1.26,0.0895,-0.0316,-0.0253,-0.0606
ATGACGC,0.0373,0.0299,-0.0728,-0.104,0.126,-0.847,0.0574,-0.123,0.0249,0.0566
TAGCATA,0.166,0.172,-0.251,-2.14,0.165,-0.25,-1.74,0.0597,0.0654,0.122
TGATCGT,-0.104,0.00324,-0.255,-0.63,-0.132,-0.739,-0.183,-0.0867,0.0282,-0.0772
GAGTCCT,-0.353,-1.49,0.18,-1.11,-1.02,1.08,-3.25,-0.172,0.0571,-0.0371
ATATAGC,-0.0365,0.0297,-0.515,-0.556,-0.00217,-1.14,0.172,-0.0654,0.14,0.103
GATTAGA,-0.00368,0.0756,0.162,0.237,0.0644,-0.183,-0.0635,-0.0372,0.083,0.0472
TGGTTCC,-0.0833,0.0557,0.317,0.724,-0.0483,1.31,-0.0787,-0.056,0.101,0.112
CGTTGAC,0.0939,-0.153,-0.164,-0.0444,-0.105,-0.513,0.127,-0.1,-0.146,-0.203
CCTCCTT,-0.218,-0.207,-0.154,-2.39,-0.194,-0.332,-0.367,-0.193,-0.195,-0.232
CCAGTCT,-0.0479,-0.124,-0.424,-2.18,-0.0756,-0.866,-0.0463,-0.178,-0.203,-0.32
AGTCACG,-0.0501,-0.149,-0.799,-0.581,0.0154,-1.2,0.0394,-0.0868,-0.0766,-0.12
CGAACGT,0.029,0.0294,0.0606,0.126,0.00138,0.159,0.00314,-0.0857,-0.112,-0.0184
CACTACG,0.0184,0.108,-0.864,-0.27,-0.0134,-1.08,0.158,-0.115,-0.0916,-0.0805
TGATAGT,-3.32,-0.122,-0.294,-1.59,0.0119,-0.77,-3.38,-0.0119,-0.0453,-0.268

Sequence,uncleaved DNA left (log2) [1],uncleaved DNA left (log2) [2],uncleaved DNA left (log2) [3],uncleaved DNA left (log2) [4],uncleaved DNA left (log2) [5],uncleaved DNA left (log2) [6],uncleaved DNA left (log2) [7],uncleaved DNA left (log2) [8],uncleaved DNA left (log2) [9],uncleaved DNA left (log2) [10]
GCGATCT,0.0904,-0.00458,-0.0309,0.444,-0.024,1.41,0.0137,-0.119,0.0636,0.103
CCACATA,0.0288,0.104,-0.0662,-0.919,0.0389,-0.493,0.0842,-0.0398,0.0999,0.0322
TGTTCTG,-0.00356,-0.175,-0.0937,0.133,-0.0191,0.365,-0.00619,-0.0752,-0.0163,-0.0892
CTAATAC,-0.731,-0.03,0.0727,-1.14,0.0401,-0.825,-2.37,-0.00643,-0.145,-0.0226
GCTACCT,0.0471,0.0132,0.156,-1.11,-0.0327,0.419,-0.212,0.02,0.128,0.0915
ATATCTC,-0.144,0.0502,-0.0822,-0.321,0.119,-0.228,-0.00732,-0.0556,0.0853,0.117
GGAACAT,0.0331,0.128,0.97,2.23,0.00991,2.37,0.195,0.106,0.00842,0.245
GGATAGG,0.106,-0.0267,0.507,1.24,0.127,1.34,0.139,0.0793,-0.0584,0.102
GGACGTT,-0.00469,-0.00124,0.774,1.79,-0.127,2.23,0.151,-0.0445,-0.0701,0.1
GAAAACT,0.107,0.0622,-1.42,-2.28,0.0111,0.554,-0.728,-0.0804,0.0816,-0.234
CCTAGAC,-0.0565,-0.243,0.0646,0.059,-0.0203,-0.561,0.112,-0.125,-0.192,-0.104
GGGGTTG,0.101,0.034,0.65,1.39,0.0375,1.94,0.198,0.0581,-0.0386,0.0841
CACGAGT,-0.107,-0.0494,-0.0347,-0.469,0.0157,-0.773,-0.49,0.0947,-0.149,-0.207
TGCTGGA,0.0555,-0.0501,0.0203,0.126,-0.0675,0.0701,-0.0951,-0.101,-0.102,0.00854
CACCAAC,-0.0168,0.0539,-0.288,-1.49,-0.114,-0.757,-0.168,-0.162,-0.139,0.0304
TGTTCCT,-0.52,-0.0303,0.211,-0.75,-0.0361,0.878,-0.634,-0.09,0.108,-0.0102
TGTACCG,-0.0629,-0.0429,-0.805,-0.974,0.00744,-1.03,0.0125,-0.0762,-0.129,-0.148
AGATCAT,-0.0979,0.0246,0.599,1,-0.158,1.45,-0.319,-0.0916,0.0533,0.171
TTCAGGT,0.0363,0.0833,0.378,1.21,0.0906,1.83,0.0646,0.0616,-0.0308,0.0226
TGTTGAT,-0.323,0.0364,0.202,0.24,0.158,0.81,-1.22,0.0764,0.0949,0.0624

Sequence,uncleaved DNA left (log2) [1],uncleaved DNA left (log2) [2],uncleaved DNA left (log2) [3],uncleaved DNA left (log2) [4],uncleaved DNA left (log2) [5],uncleaved DNA left (log2) [6],uncleaved DNA left (log2) [7],uncleaved DNA left (log2) [8],uncleaved DNA left (log2) [9],uncleaved DNA left (log2) [10]
CTAATGG,0.00207,0.0197,-0.0217,0.392,-0.0201,-0.521,0.0899,0.0192,-0.00973,0.0691
GTGAATG,0.226,0.206,0.215,0.815,0.17,1.58,0.315,0.163,0.222,0.294
TGTTTGG,0.0312,0.0526,0.0597,0.0637,0.0286,-0.373,0.0837,0.109,0.035,0.12
AGACATT,0.101,0.145,0.927,1.83,0.126,2.24,0.229,-0.0731,0.181,0.257
GGACGTA,-0.0583,0.0723,0.753,1.82,-0.0441,2.15,0.105,-0.0387,0.031,0.124
CGGTGCC,-0.0264,0.0858,-0.119,0.0826,-0.0836,-0.251,0.0237,-0.0291,0.0688,-0.0469
CCTTTGA,-0.03,-0.123,-0.433,-0.613,-0.0693,-1.22,0.0128,-0.217,-0.175,-0.107
TTACCAA,-0.0767,0.131,0.0029,-1.4,-0.0262,0.0432,-0.914,-0.0795,0.136,0.14
TTTAGGG,0.0308,0.045,0.333,0.718,-0.00293,0.536,0.195,0.0453,0.047,-0.00662
GACTACA,-0.0592,-0.11,0.0596,-1.47,-0.0645,0.598,-1.8,-0.0877,0.0356,-0.0241
GTGGGGA,0.0753,-0.0326,0.533,1.09,-0.0285,1.75,0.0914,-0.0712,-0.0584,0.0182
CATCCAG,-0.141,-0.0423,-0.797,-0.446,-0.0732,-0.955,0.00447,-0.134,-0.149,-0.0787
TGTATCG,-0.0527,-0.113,-0.932,-0.335,-0.0572,-1.29,0.0687,-0.17,-0.0753,-0.295
AGGCACC,0.0643,0.0114,0.335,0.629,-0.105,0.689,0.132,-0.0886,0.0325,0.0963
CAAGTTT,-0.0786,-0.0597,-2.92,-2.72,-0.0183,-0.771,-0.802,-0.888,0.0022,-1.02
CCGTGTG,-0.109,-0.101,-0.621,-0.179,-0.153,-0.535,0.0335,0.0427,0.0428,-0.195
CCACAAT,0.0444,0.0411,-0.372,-2.04,-0.00138,-0.831,-0.365,0.0376,-0.154,-0.047
ACTCGAG,-0.101,-0.044,-0.304,0.382,-0.0399,-0.835,0.00995,-0.109,-0.000531,0.0158
AGAAAAA,0.0264,0.0978,0.25,0.342,-0.00159,-0.231,0.18,0.0781,-0.045,0.242
GTGAATA,-0.0412,0.178,0.34,0.943,0.00733,1.76,0.0597,0.0576,0.109,0.13
